Experimental data reported in publication PMC4336329 (PLoS ONE, 2015).
Screen size: about 310,000 compounds; about 14,000 (4.5%) showed an effect of 50% or more. Effects have a minus sign here. Some of the results follow.

The compounds below were run against human ether-à-go-go-related gene (hERG) potassium channel (human, UniProt Q12809) (assay: primary screen, population patch clamp on CHO cells stably expressing hERG).
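Also: peak tail current of the secondary pulse compared with the same well before compound.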

human ether-à-go-go-related gene (hERG) potassium channel, sequence (Q12809 whole entry, looked up): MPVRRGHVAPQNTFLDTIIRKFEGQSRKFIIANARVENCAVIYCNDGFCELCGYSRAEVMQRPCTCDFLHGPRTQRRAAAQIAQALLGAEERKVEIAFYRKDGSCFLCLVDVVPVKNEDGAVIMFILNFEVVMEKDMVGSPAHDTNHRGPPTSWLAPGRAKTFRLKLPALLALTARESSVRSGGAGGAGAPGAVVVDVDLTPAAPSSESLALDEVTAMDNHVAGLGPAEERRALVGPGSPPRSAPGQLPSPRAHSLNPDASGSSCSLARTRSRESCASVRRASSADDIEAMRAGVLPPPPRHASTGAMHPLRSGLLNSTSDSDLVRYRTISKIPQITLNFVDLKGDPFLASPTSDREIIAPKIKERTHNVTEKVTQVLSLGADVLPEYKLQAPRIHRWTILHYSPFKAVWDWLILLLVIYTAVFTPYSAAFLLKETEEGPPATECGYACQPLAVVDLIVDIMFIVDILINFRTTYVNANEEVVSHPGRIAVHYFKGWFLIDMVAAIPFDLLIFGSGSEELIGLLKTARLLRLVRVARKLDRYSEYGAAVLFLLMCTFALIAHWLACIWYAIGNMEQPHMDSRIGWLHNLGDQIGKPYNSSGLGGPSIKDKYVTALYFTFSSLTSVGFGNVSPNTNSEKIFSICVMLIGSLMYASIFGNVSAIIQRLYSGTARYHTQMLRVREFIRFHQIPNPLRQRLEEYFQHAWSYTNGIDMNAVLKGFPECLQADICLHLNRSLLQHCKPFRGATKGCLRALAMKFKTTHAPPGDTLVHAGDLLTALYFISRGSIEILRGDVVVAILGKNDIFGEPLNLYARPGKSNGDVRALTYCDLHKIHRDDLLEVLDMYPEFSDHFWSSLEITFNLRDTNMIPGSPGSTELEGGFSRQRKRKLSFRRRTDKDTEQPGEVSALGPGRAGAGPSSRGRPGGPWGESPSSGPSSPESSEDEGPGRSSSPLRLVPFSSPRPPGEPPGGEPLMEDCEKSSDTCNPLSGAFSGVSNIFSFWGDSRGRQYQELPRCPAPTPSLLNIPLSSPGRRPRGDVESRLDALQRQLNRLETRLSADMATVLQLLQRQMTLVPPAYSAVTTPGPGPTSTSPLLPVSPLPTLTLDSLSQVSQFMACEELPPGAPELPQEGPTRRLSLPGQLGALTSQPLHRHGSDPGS

SMILES	hERG current change (%, negative = inhibition) at 10uM [%]
O=C1C(=O)N(c2ccccn2)C(c2cccc(F)c2)/C1=C(/O)c1ccccc1 (stereo not drawn)	3.75
CCCCn1c(-c2ccc([N+](=O)[O-])cc2)n[nH]c1=S	-5.42
Cc1cc2cc(CNC(=O)Nc3ccc(Cl)c(Cl)c3)ccc2n1C	2.71
O=C(O)COc1ccccc1/C=C1\C(=O)NC(=O)N(CCC2=CCCCC2)C1=O	11.1
CC(C)c1ccc(C(O)P(=O)(OC2CCCCC2)OC2CCCCC2)cc1 (stereo not drawn)	5.37
NS(=O)(=O)c1cc(C(=O)N2CCc3ccccc32)c(Cl)cc1Cl	-18.5
CCOCCCNS(=O)(=O)c1ccccc1	22.1
Cc1ccc(NC(=O)CCS(=O)(=O)c2ccc3c(c2)NC(=O)C(C)S3)nc1 (stereo not drawn)	7.69
Cc1c(Cc2ccccc2)sc(N)c1C(N)=O	-6.37
CN(C)S(=O)(=O)Nc1cccc(-c2cn3c(n2)SCC3)c1	11.2
CC(OC(=O)c1ccccc1C(=O)N(C)c1ccccc1)C(=O)Nc1ccc(C(N)=O)cc1 (stereo not drawn)	-4.36
Cc1ccccc1/C=C/c1nc2ccccc2c(=O)n1CCc1ccccc1	3.43
CCN(CC)S(=O)(=O)c1ccc(C(=O)N2CCN=C2SCc2cccnc2)cc1	-8.04
O=c1c2[nH]c3ccc(Cl)cc3c2ncn1CCN1CCCCC1	-68
CCc1cc(C(c2ccccn2)N2CCN(C)CC2)c(NC(=O)c2ccccc2)s1 (stereo not drawn)	-59.1
Cc1ccc(C(=O)c2oc3ccccc3c2N)cc1	-7.77
Clc1ccc(C(c2nnnn2C2CCCC2)N2CCSCC2)cc1 (stereo not drawn)	-24.4
COc1cc2c(cc1OC)CN(C(=O)c1ccco1)CC2	16.2
CN1Cc2cccnc2N(C)Cc2cc(Cl)ccc21	-11.8
CCOC(=O)CCc1c(C)nc2ncnn2c1C	-12.9
CCNc1nc(CC)nc2c1oc1ccccc12.Cl	-11.5
Cn1c(=O)c2c([nH]c(=O)n2C)n(C)c1=O	29.7
NNC(=S)Nc1cc(S(=O)(=O)N2CCOCC2)ccc1N1CCOCC1	9.82

SMILES	hERG current change (%, negative = inhibition) at 10uM [%]
CC1(c2ccc3c(c2)OCCCO3)NC(=O)N(CC(=O)Nc2cccc(C#N)c2)C1=O (stereo not drawn)	-1.95
COc1ccc(F)cc1S(=O)(=O)N1CCN(c2ccccn2)CC1	9.28
CCS(=O)(=O)N1Cc2ccccc2CC1C(=O)Nc1ncc(C)s1 (stereo not drawn)	6.32
O=[N+]([O-])c1ccc(CN2CCN(c3ncccn3)CC2)cc1	-32.2
CC(OC(=O)CN1C(=O)c2ccccc2C1=O)C(=O)c1ccccc1 (stereo not drawn)	-10.6
Cc1onc(C(=O)N2C(C)CCCC2C)c1[N+](=O)[O-] (stereo not drawn)	7.46
COc1ccc(NC(=O)CCNS(=O)(=O)c2ccc(Cl)c([N+](=O)[O-])c2)cc1S(N)(=O)=O	15.6
COc1ccc(-n2c(Cc3cccn3C)nnc2SCC(=O)Nc2cccc(F)c2)cc1	-54.3
Cc1ccc(C=Nc2cccnc2N)cc1	7.96
COc1cc(/C=N/n2cnnc2)ccc1OCC(=O)N1CCOCC1	20.4
O=C(CN1C(=O)c2ccccc2C1=O)Nc1ccccc1N1CCOCC1	3.78
CNc1nc(-c2ccc3c(c2)CCN3C(=O)c2ccccc2C)cs1	-14.4
O=C(CCC(=O)c1ccccc1)NCc1cccc(C(F)(F)F)c1	4.89
COc1ccccc1C1=NOC(Cn2c(NCCCO)nc3c2c(=O)n(C)c(=O)n3C)C1 (stereo not drawn)	-4.28
COc1ccc(NC2=CC(=O)CC(C)(C)C2)cc1	7.6
O=C(CCNC(=O)N1C[C@H]2C[C@@H](C1)c1cccc(=O)n1C2)Nc1ccc(F)cc1	20.6
CC(C)Oc1ccc(C(=O)OCC(=O)N2CCCc3ccccc32)cc1	6.85
CCCCNC(=O)Nc1ccon1	5.29
CCOc1ccc(C(=O)OCC(=O)NC(C)C)cc1	22.3
CC(=NCCC1=CCCCC1)c1c(O)[nH]c(=O)[nH]c1=O	-3
CC(=O)c1sc(NC(=O)C(C)(C)C)nc1C	11.6
COc1ccc(C(=O)N2CCCCC2C(=O)Nc2ccc(-n3nc(C)cc3C)cc2)o1 (stereo not drawn)	-13.8
